Data reported in the RNAGym collection of RNA variant scans (doi:10.7554/elife.90254).
Read counts are not given, so values of variants with three or more changes are uncertain.

B1: LINE1-mini (parent)
chain: GGCAGAGCUCAACACAGCGUGGCAAAGUGGCUGUGGCUAGACUGCC

Variants of: B1
Assay: self-cleavage, relative activity (ratio to wild type); higher = more cleavage; in vitro, sequencing; the parent is a self-cleaving ribozyme

Variant	self-cleavage
GGCAGAGCUAAACACAGCGUGGCUAAGUGGCUGUGGCUAGACAGCC [C10A A24U U43A]	0.01
GGUAGAGCUCAACACCGCGUGGCAAAGUGGCUGUGGCUAGGAUGCA [C3U A16C A41G C42A C46A]	0.08
GGCUGUGCUUAACACAGCGUGUCAAAGUGGCUGUGGCUAUACUGCC [A4U A6U C10U G22U G40U]	0.03
GGCAGAGCUGAACACAGCGUGGCAAAGUGGCUGCGGCUAUACUGCC [C10G U34C G40U]	0.02
GGCAGAGGUCAACACCGCGUGGCAAAGUGGCGGUGGCUAGACUGCC [C8G A16C U32G]	0.03
GGCAGAGAUCAACACAGCGGGGCAAAGUUGCUGUGGUUAGACUGCC [C8A U20G G29U C37U]	0
GGCAGAGCUCAAUACAUCGUGGCAAAGAGGCUGUGGCUAGACUGCC [C13U G17U U28A]	0.14
GGCAGGGCUGAACACAGCGGGGCAAAGUGGCUGCGGCUAGACUGCC [A6G C10G U20G U34C]	0.02
GGCAGAGCUCAAAACCGCGUGGCAAAGUUGCUGUGGCUAGACUGCC [C13A A16C G29U]	0.4
GGCAGAGCUAAACACAGCGUGGAAAAGUGGCUGUGGGUAGACUGCU [C10A C23A C37G C46U]	0.02
GGCAGAUCUCAACACAGCUUGGCAAACUGGCUGUGGCUAGACUGCC [G7U G19U G27C]	0.01
GGCAGAGCUCAACACAGCGUGGCAAAUAGGCUGUGGCUAGACUGCU [G27U U28A C46U]	1.14
GGCAGAGCUCAACAUAGCGAGGCAGAGUGGCUGUGGGUAGAAUGCC [C15U U20A A25G C37G C42A]	1.31
GGCAGAGCUCAAUAAAGCGUGACAAAGCGGCUGUGACUAGUCUGCC [C13U C15A G22A U28C G36A A41U]	0.12
GGCAGAGAUCAACUCAGCGUGGCAAAGUUGCUGUGGCUAGACUGCC [C8A A14U G29U]	0.14
CGCAGAGCUCAACACAGGGUGGCAAAGAGGCUGUGGCUAGACUGCC [G1C C18G U28A]	0
GGCAGAGCUCAACACAGCGUGGCACAGUGGCUGUGUCUAGAUUGCC [A25C G36U C42U]	0.01
CGCAGAGCUCAACACAGCAUGGCAAAGUGGCUGUGGCAAGACUGCC [G1C G19A U38A]	0.07
GACAGAGCUCAAAACCACGUGGCAAAGUGGCUGUGGCUAGACGGCC [G2A C13A A16C G17A U43G]	0.1

Variant	self-cleavage
GGCAAAGAUCAACACAGAGUUGCCAAGUGGCUGUCGCUAGACUGCC [G5A C8A C18A G21U A24C G35C]	0.07
GGCAGAGCUCAAGACAGGGUGGCAAAGUGGCUGUUGCUAGAAUGCC [C13G C18G G35U C42A]	0.02
GGCAGAGCUCAACACAGCGUGGCACAGUGGCUAUGGCUAGACUGGC [A25C G33A C45G]	0.05
GGCAGAGUUCAACACAGCGUGGCAAAGUGGCUUUGGCUGGACUGCA [C8U G33U A39G C46A]	0.17
GGCAGAGCUCCACACAGCGUGGCAAAGUGGUUGUGGCUUGACAGCC [A11C C31U A39U U43A]	0.03
GGCAGAGUUUAACACAGCGUGGCAAGGUGGCUGUGGCUAGAAUUCC [C8U C10U A26G C42A G44U]	0.04
GGCAUAGCUCAACAAAGCGUGGCAGAGUGGCUGUGGCUAGACUGCC [G5U C15A A25G]	0.04
GGCCGAGCUCAACACAGCGUGGCAAAGUGGCGCUCGAUAGACUGCC [A4C U32G G33C G35C C37A]	0.11
GGCAGAGCUCAACACAGUGUGGCAAAGUGACUGUCGCUAGACUGCC [C18U G30A G35C]	0.08
UGCCGAGCUCAAGACAGCGUGGCAAGGUCGCUAUGGCUAGACUGCC [G1U A4C C13G A26G G29C G33A]	0.01
GGCAGAGCUCAACACACCGUGGCAAAGUGGCUCUGGCUAGCCUGCC [G17C G33C A41C]	0.04
GUCAGAGCUCAACACAGCGUGGCGAAGUGGCUGUGGCUAGACAGCC [G2U A24G U43A]	0
GGCAAAUCUCAACACAGCGUGGCAAAGUGGCUGGGGCUAGACUGCC [G5A G7U U34G]	0.12
UGCAGAGCUCAACACAGCGUCGCAAAGUGGGUGUGGCUAGACUGCC [G1U G21C C31G]	0.05
GGCAGAGCUCAACACAACGUAGCAAAGUGUCUUUGGCUAAACUGCC [G17A G21A G30U G33U G40A]	0.06
UGCAGAGCUCAACACAGCGUGGCACAGUGGCUGUGGCUAAACCGCC [G1U A25C G40A U43C]	0.01
GGGAGAGCUCAACACAGCGUAGCAAAGUAGCUGUGGCUAGACUGCC [C3G G21A G29A]	0.29
GGCAGAGCUCAACAAAGAGUGGCAAAGUGGCUGUGGCUAGACCGCC [C15A C18A U43C]	0.01
GGCAGAGCUCAACACAGCGUGGUAACGUAGCUGUGGCUAGACUGCC [C23U A26C G29A]	0.79

Variant	self-cleavage
GGCAAAGCUCAAGACAGCGUGGCAAAGUGGCUGUCGCUAGACUGCC [G5A C13G G35C]	0.07
GACAGAGCUCAACACCGCGUGGCAACGUGGCUGUGGCUAGACUGCC [G2A A16C A26C]	0.13
GGCAGGGCUCAACACAGCGUGGCAAAGUGGCUGUGUACAGACUGCC [A6G G36U C37A U38C]	0.03
GGCAGAACUCAACACAGCGUGGCAAAGUGGCUGUGCGUACACUGCC [G7A G36C C37G G40C]	0.1
GGCUGAGCUCAACACAGUGUGGCACAGUGGCUGUGGCUAGAUUGCU [A4U C18U A25C C42U C46U]	0.03
GGCAGAGCACAACACAGCGUGGCAAAGUGGCUGUGGCUAGGCUGGC [U9A A41G C45G]	0.08
GUUAGAGCUCGACACAGCGUGGCUAAGUGGCUGUGGCUAGACUGCC [G2U C3U A11G A24U]	0.03
GGCAGAGCUAAACACAGCCUGGCAAAGCCGCUGUGGCUAGACUGCC [C10A G19C U28C G29C]	0.01
GGUAGAGCUCAACACAGCGAGGCAAAGUGGCGAUGGCUAGACUGCC [C3U U20A U32G G33A]	0.04
GGCAGAGCUCAACUCGGCGUGGCAAGGUGGCUGUGGCGAGUCAGCA [A14U A16G A26G U38G A41U U43A C46A]	0.05
GGCAGAGCUCAGCAGAGCGUGGCCAAGUGGCUGUGGCUGGCCUGAC [A12G C15G A24C A39G A41C C45A]	0
GACAAAGCUCAACACAGCGUGGCAAAGGGGGUAUGGCUGUACUGCC [G2A G5A U28G C31G G33A A39G G40U]	0.09
GGCAGAGCUCAACACAGCGUGUCAAAGUGCCUGUGGCUUGACUGCC [G22U G30C A39U]	0.7
GGCACAGCUCUACACAGCGUGGCAAAGAGGUUGUGGCUAGACUGAC [G5C A11U U28A C31U C45A]	0.03
GGCAGAGCUCAACACAGAGUGACAAAGUGGCUGCGGCUAGACUGCC [C18A G22A U34C]	0.04
GGCAGAGCUCGACACAGAUUGGCAAAGUGGCUGUGGCUAGACUGCC [A11G C18A G19U]	0.06
GGCUGAGCUCAACACAGCGUGGCAAAGUGGCUGUUGCUAAACUGCC [A4U G35U G40A]	0.11
UGCAGAGCUCAACACAUCGUGUCAAAGCGGCUGUGGCUAGACUGCC [G1U G17U G22U U28C]	0.04
